According to the supplement of paper PMC3334620:
In all, about 33,000 sequences were measured (“E-score (-0.5 to 0.5)”: median about -0.016, highest 2% from about 0.31 on). The list shows a part of the results.

target: Cst6 (UniProt P40535); assay: PBM E-score (8-mer binding enrichment) (E-score (-0.5 to 0.5)); higher = stronger / more preferred TF binding; most listed sequences are background and not binding sites; conditions: protein concentration: 200 nM; construct: GST-DNA-binding domain
Experimental: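 Universal 'all 10-mer' protein binding microarrays (Agilent AMADID 015681) probed with GST-tagged S. cerevisiae TFs (full-length or DBD) made by in vitro transcription/translation (PURExpress), about 100-200 nM. Bound TF was detected with fluorescent anti-GST. Each ungapped 8-mer (which stands for itself and its reverse complement) is scored by the PBM enrichment score (E-score), a modified Wilcoxon-Mann-Whitney statistic from -0.5 to +0.5, computed with the Universal PBM Analysis Suite. Scale: above 0.35 generally sequence-specific binding.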

Sequence | PBM E-score
CATAAGGA | 0.0192
GCGCGTAC | 0.058
CAGCCCGG | -0.245
AACGACCT | -0.0345
CTGTGTGA | 0.173
CATTGCGG | -0.103
TTCATGAA | 0.21
GCGTGTGA | 0.0327
CGCTTATC | 0.0432
ACCCGTAG | -0.254
ACAACCTC | -0.0921
CAGGGGCG | -0.0903
ATCGCAAG | -0.115
CTAAAGTA | -0.067
GGTGTACA | 0.0859
AACGCCTC | -0.0434
CCAGTAAC | -0.106
ATTGCCGA | -0.0119
AGCCTGCA | -0.00355
CTATATAG | 0.00104
CCAATTTA | 0.196
AGAATGGA | -0.00827
CTTCCCCA | -0.0198
AAACGGGA | -0.0748
AAAAATCG | 0.0277

Sequence | PBM E-score
AAGCTCCT | -0.288
AAGTTCCG | -0.0702
GTGCAGGA | -0.08
TACTGAGA | -0.106
ACTTCTTA | 0.149
GCCCCGAA | -0.0904
CTATGATA | 0.191
CAGCTCTA | -0.081
AAAGCAGG | -0.0575
GCATCCCA | -0.217
GGTTGGTA | 0.0978
CATGGGGG | -0.361
TGCCGGCA | -0.012
CAGCGCGA | 0.0117
CGCTACCG | -0.185
GGTCTCTA | -0.163
AGCATAGC | -0.048
GGAGTAAC | -0.129
AGCGATCA | -0.0526
ACCGGCAC | -0.097
ACAGTGAG | -0.0684
CTTAGACC | -0.0553
AATTACCT | 0.175
CTTAGCTC | -0.147
GGGCATTA | -0.112

Sequence | PBM E-score
CCTTCCAC | -0.228
GCTCACTA | 0.0251
AAAATCTT | 0.117
AGAGGGAG | -0.177
TGACCCCA | -0.18
GGCTAGCC | -0.472
ACGGGCTG | -0.21
AGTTAACG | 0.155
TCGGTAGA | 0.103
CAGTCTAA | 0.11
GTCGTTTA | 0.105
AGATGATG | 0.346
ACCCCAGT | -0.168
CAGGAAGG | -0.114
CTTCCATA | -0.0671
CAGGTAGA | -0.0818
GGCCGTTA | 0.0215
GGGGGGCA | -0.343
AGGAGGCG | -0.116
GAGGCACA | -0.0227
TAAGCGTA | -0.00291
CGCGGTTC | 0.0154
AGGGGCTC | -0.195
TACCCTCA | -0.14
GCCCAGTA | -0.143

Sequence | PBM E-score
AAGGTACC | -0.203
GTTACAAA | 0.182
CCAGCGCA | -0.255
ACTTGTAC | 0.0373
CCTCTTCC | -0.298
GACGAACC | -0.112
ATGGTAGC | -0.138
GAGATATA | 0.106
ATTCCTTC | 0.0154
CACGTCGC | -0.0365
GCAGGAGC | -0.239
ATCCACAA | -0.0491
ACGGCAGT | 0.241
CAGCTGAC | 0.0776
CACACTCG | 0.0419
CTATCGGC | -0.172
CGTTGTGC | 0.0437
AAGGCGAC | -0.055
TAGATTAA | 0.156
CCCCTGTA | -0.169
AACAATCC | 0.204
CAATCAAA | 0.0758
ACACTAAT | 0.141
CGGCTGTC | -0.0915
CCCGGCTC | -0.3

Sequence | PBM E-score
CCTTCGAA | -0.136
CGAGCGTC | -0.0638
AGACTCTA | -0.169
CCGCCCGC | -0.0765
ATTATTGC | 0.209
CCTTGTAA | 0.14
AAGCCTCG | -0.00537
GATCAGAC | -0.142
CCAAACAA | 0.123
ACACCATG | 0.0535
ACGAATAC | 0.167
AGTTGTGA | 0.211
AATACGGC | 0.324
GGAAACAA | 0.0408
GGGGCCCC | -0.058
CTTCCGAC | -0.188
GTTTCGTA | 0.198
ACCAACTC | -0.0108
ACGCCAGT | -0.0905
CTTATACC | -0.108
AGTCTAAA | -0.0714
CCAGAAAC | -0.0108
CACTTAAC | -0.0141
GTACGTTA | 0.124
ACCTCCGT | -0.0629

Sequence | PBM E-score
ACAATCAG | 0.177
CACGGCAC | 0.356
GGGTCTTA | -0.0279
CTTGTGGC | -0.13
ATTATAAT | 0.259
CCGCGCGA | 0.255
GTTATATA | 0.22
TGTACGAA | 0.0537
CTCGAGAC | 0.00278
ATCAACTC | 0.0417
CGGGGCGA | -0.0977
AGTACGAT | 0.143
CAGTAGGC | 0.0297
AACCCAAG | -0.0264
AAGCGGCA | 0.231
GAAGCAAA | 0.011
AAGTTGCA | 0.0207
CGTTAGGA | 0.0369
CGGTTTAA | 0.0305
CATCAGAC | 0.0226
CACTATTA | 0.136
ACGCCCAT | -0.181
ACCCATGG | -0.144
CGATATTA | 0.248
CCATGAGG | -0.159

Sequence | PBM E-score
GCAGAAAA | 0.171
CGGAAGAC | -0.113
CTTTAGCA | -0.179
GCCTTAAA | 0.151
ACATGTGG | 0.0263
AAGTTGGA | 0.0831
CGCGGCCC | 0.09
GAGCTGAC | 0.151
CTTTCATC | -0.0143
TCATACGA | 0.198
GCGATCGA | 0.162
ATCAAACG | 0.161
ACTTCGGC | 0.0436
ATTGAAAA | 0.31
ATCCCGAT | -0.0988
GCTAATTA | 0.166
CAGATTCA | -0.105
ACCCTTCC | -0.149
GTGGTAAA | 0.0101
GATTCTGC | 0.0379
ACCGTGCA | 0.00574
CCAGAATA | 0.164
AAAAACTC | 0.165
AACATCTA | -0.0563
CCAACTAA | -0.0265

Sequence | PBM E-score
CACGGTCC | -0.284
CCACTTCA | -0.197
ATTACTGC | 0.142
GTAGAGAA | 0.00912
AGCTCCCA | -0.281
AGACTCTG | -0.124
AAAAATGT | 0.139
CCTGTAAC | 0.0347
GCCATAGC | 0.0387
AAATCATC | 0.175
AGGAAATC | 0.0217
ACGTTGCG | 0.0483
CCACAAAA | 0.221
CCCAACAC | -0.221
ACTATAAT | 0.12
CACTATGA | 0.0196
AGCGGAAC | -0.0876
GGACAATA | 0.06
ATAGCGGA | -0.107
CTAGCTTA | 0.0979
ACTCGAGG | -0.16
AGAAAAAT | 0.17
CCTTGCCG | -0.0564
GACAGCGC | -0.0199
TTATCCAA | 0.162

Sequence | PBM E-score
GACGGAAC | 0.0352
AGCAGTGG | -0.048
AGGTCTGA | 0.0301
CTGCGACC | -0.358
AACGCCGA | 0.23
GTTAGTGA | 0.259
AGAATTGA | 0.0248
ACGTGTGC | 0.0207
AAAGTCGG | -0.144
AATGATCC | 0.026
AGAACAAG | 0.113
AAGTAGCT | -0.0483
GTTGTATA | 0.212
AAGAGGCA | 0.13
CCAAGCAA | -0.0563
CACGTGCC | 0.0716
AGTTAGAG | -0.085
CTGTTTCC | -0.106
GCGGAGTA | -0.116
ACCCGGGA | -0.226
CACAATCG | 0.0369
GAAACAGC | -0.187
CCGCTAAC | -0.053
TAGGCGCA | -0.0585
CCATGGCA | -0.102

Sequence | PBM E-score
CCTGCTAC | -0.178
ACAGAACA | 0.0685
ACTCCGCA | -0.133
ATCACAGC | 0.222
AATGGGCC | -0.21
CCCTGATC | -0.167
CTGTCATA | 0.186
ACCGGTCG | -0.323
CCCATCAC | -0.118
CGAGAAGC | -0.105
CTCAACAG | -0.0624
CTATCTTA | 0.0343
GCTAAATA | 0.166
CCGGGTGC | -0.247
CAAATGTA | 0.221
GGAGTTAC | -0.053
GACGATTA | 0.227
CCGACCCG | -0.0987
GAAGACGC | -0.0955
CACCCCGG | -0.19
AATCACAC | 0.188
AGGTTACT | -0.0856
CAATATCA | 0.126
GTCAGAAC | 0.0593
CAGCGGAA | -0.0792

Sequence | PBM E-score
AATGGCAG | -0.0875
ACATAACA | 0.227
AGGTGACA | 0.278
ATATTTGA | 0.166
ATGCCTTA | 0.157
AGTCACCA | 0.0433
AATCATGT | 0.139
GGTCCTCA | -0.147
GCCCATGA | 0.0245
GCACGCCC | -0.178
GAGTTTGC | -0.0936
CTAAGCTC | -0.152
ACGGCCCT | -0.051
ATGGTGCG | -0.135
CACTTAAG | 0.17
AGGATTCG | 0.028
AGCTTCGA | -0.0845
CATGAGTA | 0.0546
TCTGGACA | -0.209
ACTGTCTC | -0.135
ACTTAAGT | 0.244
ATTGTGCG | 0.122
ACAGAGCG | -0.0159
GAGGGGAC | -0.207
CGATTAAC | 0.0578

Sequence | PBM E-score
CATTACCG | 0.073
ACAGACCG | -0.139
ACACATCA | 0.177
CCCGTCTA | 0.00216
GGGCAAAA | -0.0509
ACGGGCAT | -0.12
GAACGCTA | -0.196
GCAGGGAC | -0.2
GCTAGAGC | -0.0947
GTATAGCA | 0.163
CCTTCCAA | -0.149
CATAGGCG | -0.0502
TACACCTA | 0.0217
CACAACAC | 0.124
CAGTCCGG | -0.28
ATTGCTCC | -0.0682
CTCCATTC | -0.2
CACAGTAC | -0.0711
AAATCATT | 0.137
CTACGGTC | -0.261
CCCTTTTC | 0.0325
AGAATCCC | -0.0334
CTCGGGGC | -0.19
AAAGATTT | 0.0387
CATTCGCC | -0.0704

Sequence | PBM E-score
CGTTATCC | -0.00758
AACAGACC | -0.00805
CAACTCTG | -0.182
CTCGGATC | -0.0879
CCTGACCG | -0.144
ACGCGGTA | -0.0528
GTTCAGTA | 0.0978
GCATATAC | -0.0289
CCGGTGCC | -0.114
ACCTAGCC | -0.24
AGGCTGTG | -0.113
ATGCCATC | 0.239
AACCCGGA | -0.319
ATCAGCCA | -0.119
TACGGGGA | -0.126
AGGCCATC | -0.168
TCAGGTAA | -0.00858
AGCAGTTC | -0.0692
AAATGGAC | 0.103
CGTTATAA | 0.161
CGCGTAAC | 0.0886
ATTAAAGC | 0.0848
TCACTCCA | 0.0486
CAGCGCTC | -0.141
CGGTCAGA | -0.216

Sequence | PBM E-score
CTTCGCGA | -0.219
AAAAGGGT | 0.0092
TCGGATAA | 0.0238
TCTTATAA | 0.111
ATCGCCGA | 0.193
AGTCCCCA | -0.363
TACCCGTA | -0.0666
CTCCTACC | -0.312
ATATCGGA | -0.089
CAGCCTGG | -0.208
GTACGGAA | 0.0659
AGACTGTG | -0.122
ATATCCGC | -0.0354
CAAAAAGG | 0.0223
AGTTGTTC | 0.108
CTAATGTC | 0.096
AGTATGTC | 0.155
GCCCAAAC | -0.104
GAAATATC | 0.014
